The subject of the assay is MDA-MB-468 breast. Briefly: DTP human tumour cell line panel, 48 h.

The structures appear in SMILES notation.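 Tested at 5 concentrations; 48 h exposure; 96-well plates; endpoints linearly interpolated, else capped at highest concentration. GI50 marks 50% less growth.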 Certain results were filed several times, with different values. Only these are listed. The source may hold further records. The tests behind the records often covered other concentration ranges, which the source does not state; some values may only mark the edge of a range.

As to `CCc1nc(N)nc(N)c1C#CC(C)c1ccc(-c2ccncc2)cc1Cl` (stereo unspecified), the GI50 is 23.2 nM and 461 nM.

These data come from PubChem BioAssay (NCI).
